In all, about 43,000 compounds went through this assay and about 200 (0.47%) were called active. About 12% were inconclusive and are not listed. Calls follow the shape of the dose curve; as a rule, active = well fitted cell-killing curve with a large enough effect; inconclusive = small, poorly fitted or top-dose-only effect, or effect the other way; inactive = flat fitted curve, though single readings scatter. The list shows a part of the results.
Test: Cell viability qHTS assay in S16 Pmp22-F2sN cells; also: nearly all actives have a fitted effect of over 65% in size
Conditions: S16 Pmp22-F2sN Schwann cells (luciferase reporters placed in the Pmp22 gene) viability, CellTiter-Glo, 24 h; series mostly up to 57.5 µM; activity change, negative = cytotoxicity: at the top concentration
How it was run: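 S16 Schwann cells carrying the Pmp22-F2sN reporter, seeded in 1536-well format, were exposed to library compounds for 24 h at 37C. Viability was read as CellTiter-Glo luminescence after 15 min at room temperature.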
% is scaled to controls: 0 for no effect and ±100 for the full control effect.

Row | Structure (SMILES) | activity change, negative = cytotoxicity
1 | CCCS(=O)(=O)N1CC(=O)N(c2ccc(C)cc2C)C(C)(C(=O)NC2CCCCCC2)C1 (stereo not given) | inactive: 2.58%
2 | O=C(Cn1c(=O)nc(-c2ccccc2)c2cc(Cl)ccc21)NCc1ccc(Cl)cc1 | inactive: -14.3%
3 | CCCCN(C)CCNC(=O)CN1C(=O)CSc2ccc(S(=O)(=O)N3CCCCC3)cc21 | inactive: 15.5%
4 | CCOC(=O)N1CCc2c(sc(NCc3cccs3)c2C(=O)Nc2ccc(OC)cc2OC)C1 | inactive: -7.02%
5 | O=c1c(S(=O)(=O)c2ccccc2)cn(Cc2cccc(F)c2)c2cc(N3CCCC3)c(F)cc12 | inactive: 4.29%
6 | CCc1ccc(NC(=O)CSc2nc(=O)n(Cc3ccncc3)c3c2CCC3)cc1 | inactive: -6.08%
7 | Cc1ccc(C)c(Nc2nn3c(=O)c4cc5c(cc4nc3s2)OCO5)c1 | inactive: -2.14%
8 | Cc1cc2c(cc1S(=O)(=O)CCC(=O)N1CCCCC1C)OCC(=O)N2 (stereo not given) | inactive: 2.18%
9 | O=C(COCc1cc(-c2ccc3c(c2)OCO3)on1)Nc1cc(C(F)(F)F)ccc1Cl | inactive: 20.5%
10 | CCN1CCN(CCCNC(=O)Cn2c(-c3cccs3)cc3cc(F)ccc32)CC1 | inactive: -4.73%
11 | Cc1oc(-c2ccc(C(=O)NCc3ccccc3Cl)cc2)nc1CN1CCc2ccccc21 | inactive: 0.458%
12 | CCCn1c(CCC(=O)Nc2ccc(C)c(Cl)c2)nc2cccnc21 | inactive: 0.455%
13 | COc1ccc(C)cc1NC(=O)c1cc(S(=O)(=O)N2CCc3ccccc3C2)ccc1F | inactive: 5.29%
14 | CCCCNC(=O)CCn1c(=O)c2cccn2c2cccnc21 | inactive: 15.4%
15 | CCN(C(=O)c1c(C)oc2ncn(CC(C)C)c(=O)c12)c1cccc(Cl)c1 | inactive: 1.64%
16 | Cc1ccc(S(=O)(=O)C(CNC(=O)C(=O)NCCc2ccc(Cl)cc2)c2cccs2)cc1 (stereo not given) | inactive: 5.84%
17 | O=c1c2ccccc2n2c(-c3ccccc3F)nnc2n1CCc1ccccc1 | inactive: -7.29%
18 | COc1cc(OC)c(N(C)C(=O)c2cc3c(=O)oc4ccccc4c3s2)cc1Cl | inactive: 13.9%
19 | Cc1ccc(-n2nc(C(=O)N(C)Cc3ccccc3)c3c4ccccc4n(C)c3c2=O)cc1 | inactive: 16.9%
20 | Cc1ccc(C(=O)N(c2ccc(C)cc2)S(=O)(=O)c2ccc(Cl)cc2)cc1 | inactive: -2.34%
21 | CC(C)c1ccc(NC(=O)c2ccc3c(O)c(S(=O)(=O)c4ccccc4)c(=O)[nH]c3c2)cc1 | inactive: -4.05%
22 | Cc1ccc(NC(=O)C(Cc2ccccc2)N2Cc3ccccc3C2=O)cc1Cl (stereo not given) | inactive: -8.55%
23 | Cc1ccc(-n2c(=O)c3c(c4cc(C)ccc4n3C)n(Cc3ccc(F)cc3)c2=O)cc1 | inactive: 2.14%
24 | Cc1ccccc1C(=O)N(Cc1ccc(N(C)C)cc1)CC1CCCO1 (stereo not given) | inactive: 18.4%

Row | Structure (SMILES) | activity change, negative = cytotoxicity
25 | Cc1ccc(N2CCN(C(=O)NCc3noc4ccc(C)cc34)CC2)c(C)c1 | inactive: 5.27%
26 | COC(=O)c1ccccc1NC(=O)C1CCCN(c2ncnc3onc(C)c23)C1 (stereo not given) | inactive: -0.155%
27 | Cc1ccc(CNC(=O)c2sc3nc4n(c(=O)c3c2C)CCCCC4)cc1 | inactive: -1.56%
28 | COc1ccccc1NC(=O)CSC1=Nc2ccccc2C2=NC(CC(=O)NCc3ccc4c(c3)OCO4)C(=O)N12 (stereo not given) | inactive: 5.75%
29 | COc1ccccc1N=C1SC(C(=O)Nc2ccccc2OC)CC(=O)N1C (stereo not given) | inactive: 1.87%
30 | CCOC(=O)c1noc2ncnc(NCc3ccccc3OC)c12 | inactive: 6.96%
31 | O=C(NCCOCCn1c(=O)oc2ccccc21)Nc1cccc(Cl)c1 | inactive: -16.2%
32 | O=S(=O)(c1ccc(-n2cnnn2)cc1)N1CCN(c2cccc(C(F)(F)F)c2)CC1 | inactive: 1.53%
33 | Cc1oc(C)c2c(=O)cc(-c3ccc4c(c3)OCO4)cc(OC(=O)c3cccc(Cl)c3)c12 | inactive: -10.9%
34 | Cc1ccc(S(=O)(=O)NCc2ccc(C(=O)NCCc3cccc(C)c3)cc2)cc1 | inactive: -20.1%
35 | COc1ccc(S(=O)(=O)N(Cc2nc(-c3ccc(Cl)cc3)no2)C2CCCCC2)cc1 | inactive: -26.1%
36 | N#Cc1c(C(F)(F)F)cc(-c2cccs2)nc1SCC(=O)Nc1cccc(C(F)(F)F)c1 | inactive: 0.998%
37 | O=C(c1ccccc1Br)N1CCC(c2nc3ccccc3o2)CC1 | inactive: -19.8%
38 | Cc1ccc(Cn2c(=O)n(-c3cc(C)cc(C)c3)c(=O)c3oc4ccccc4c32)cc1 | inactive: 18%
39 | CCCCOC(=O)c1cccc(NC(=O)/C=C/c2ccccc2Cl)c1 | inactive: -15.2%
40 | COC(=O)c1ccc(Cl)cc1NC(=O)N(Cc1ccc(OC)cc1)C1CCN(C(C)=O)CC1 | inactive: -3.86%
41 | COc1ccc(OC)c(NC(=O)CSc2nc3ccccc3c(=O)n2CCC(=O)NC2CCCCC2)c1 | inactive: -16.6%
42 | COc1cc(Cl)c(C)cc1NC(=O)c1sc2nc(C)cc(C)c2c1N | inactive: 4.41%
43 | Cc1ccsc1CN(C(=O)COc1cccc(C)c1C)C1CCS(=O)(=O)C1 (stereo not given) | inactive: 1.2%
44 | CN1C(=O)C(C)(C)c2cc(S(=O)(=O)N3CCCC3C(=O)Nc3ccc(F)cc3)ccc21 (stereo not given) | inactive: 4.02%
45 | COc1ccccc1NC(=O)C(Cc1ccccc1)NS(=O)(=O)c1cccc2nsnc12 (stereo not given) | inactive: -18.8%
46 | COc1ccc(-n2cc(C(=O)OCc3ccc(Cl)cc3)c3ccccc3c2=O)cc1 | inactive: 0.202%
47 | CN(C)c1ccc(C(CNS(=O)(=O)c2ccc(F)cc2)N2CCOCC2)cc1 (stereo not given) | inactive: 9.88%
48 | Cn1c(=O)c(=O)n(C)c2cc(S(=O)(=O)N3CCCC3C(=O)Nc3ccc(F)cc3)ccc21 (stereo not given) | inactive: -17%

Row | Structure (SMILES) | activity change, negative = cytotoxicity
49 | CCOc1ccc(CNC(=O)Cn2ccc3cc(S(=O)(=O)N4CCCCC4)ccc32)cc1 | inactive: -20.8%
50 | Cc1ccc(NC(=O)CSc2ccc(-c3ccccn3)nn2)cc1F | inactive: -22.1%
51 | COc1ccc(S(=O)(=O)N(CC(=O)NCCSCc2ccccc2)c2ccc(C)cc2)cc1 | inactive: 23.5%
52 | CCC(C(=O)Nc1ccc(C(=O)OC)cc1)n1nc(-c2ccc(C)c(C)c2)ccc1=O (stereo not given) | inactive: -10%
53 | Cc1c(C(=O)OC2CCCCCC2)[nH]c2c1C(=O)CC(c1ccc(N(C)C)cc1)C2 (stereo not given) | inactive: 17.4%
54 | COc1ccc(NC(=O)C2CCN(S(=O)(=O)c3ccc4c(c3)CCCC(=O)N4)CC2)c(OC)c1 | inactive: 7.08%
55 | CCOc1ccc(Nc2sc(C(=O)c3cccc(OC)c3)c(N)c2S(=O)(=O)c2ccccc2)cc1 | inactive: -3.66%
56 | COc1ccc(C)cc1NC(=O)Nc1ccccc1OCc1cc(=O)n2ccccc2n1 | inactive: 20.8%
57 | CCCCNC(=O)c1cnc2sc(N3CCCCCC3)nn2c1=O | inactive: -3.58%
58 | Cc1cc(C)c(NC(=O)C(=O)NCC(c2cccnc2)N2CCN(Cc3ccccc3)CC2)c(C)c1 (stereo not given) | inactive: -0.719%
59 | Cc1ccccc1-c1noc(-c2ccc(N3CCN(C)CC3)c([N+](=O)[O-])c2)n1 | inactive: 18%
60 | COc1cccc(NC(=O)CSC2=Nc3ccccc3C3=NC(CC(=O)NCc4ccc5c(c4)OCO5)C(=O)N23)c1 (stereo not given) | inactive: -21.7%
61 | COc1ccc(CC(=O)N(Cc2nc(-c3ccc(C)cc3)no2)C(C)C)cc1 | inactive: 8.03%
62 | COc1ccc2c(c1)c1c(c(=O)n(-c3ccccc3)c(=O)n1CC(=O)NCc1ccc(C)cc1)n2C | inactive: -0.973%
63 | CSc1nn(Cc2cccc(Cl)c2)c(N(C(C)=O)C(C)=O)c1S(=O)(=O)c1ccccc1 | inactive: 18.3%
64 | CCOc1ccc(CCNC(=O)CSc2nnnn2-c2ccc(C)cc2C)cc1OCC | inactive: 3.2%
65 | CCOC(=O)C1=C(CN(C)Cc2ccccc2)NC(=O)NC1c1ccc(OC)cc1 (stereo not given) | inactive: 11.5%
66 | O=C(NCC(c1cccnc1)N1CCc2ccccc21)c1ccc(F)cc1 (stereo not given) | inactive: -10.9%
67 | CCOc1ccc(NC(=O)N(C)CCc2c(C)nn(C)c2C)cc1 | inactive: 1.46%
68 | CCCCOc1ccccc1C(=O)N(Cc1cccc(F)c1)C1CCS(=O)(=O)C1 (stereo not given) | inactive: 5.98%
69 | CC(=O)c1cccc(NC(=O)Cc2noc3ccccc23)c1 | inactive: -19.2%
70 | CC(C)CCNC(=O)CN1C(=O)c2cccnc2Sc2ccccc21 | inactive: 2.93%
71 | CCS(=O)(=O)c1ccccc1C(=O)Nc1ccc(-c2nc3ccccc3s2)cc1 | inactive: 13.5%
72 | COc1ccc(CC(=O)Nc2cc(-c3cn4cccnc4n3)ccc2OC)cc1 | inactive: 1.58%

Row | Structure (SMILES) | activity change, negative = cytotoxicity
73 | O=C(Nc1ccc2nc(SCCOc3ccccc3Cl)sc2c1)c1ccc2c(c1)OCO2 | inactive: -1.69%
74 | CCCCC(=O)NC1(C(F)(F)F)C(=O)Nc2c1c(=O)[nH]c(=O)n2-c1ccc(C)c(C)c1 (stereo not given) | inactive: 12.3%
75 | CN(C)c1ccc(NC(=O)CSc2nc3ccsc3c(=O)n2CCCCCC(=O)O)cc1 | inactive: -0.705%
76 | COc1cc(OC)c(NC(=O)C(Cc2ccccc2)NS(=O)(=O)c2cccc3nsnc23)cc1Cl (stereo not given) | inactive: -15.5%
77 | Cc1c(C(=O)N(Cc2ccco2)Cc2ccccc2Cl)oc2ccc(F)cc12 | inactive: -25.5%
78 | COc1ccc(OC(C)C(=O)NCc2nc(-c3cccc(C)c3)no2)cc1 (stereo not given) | inactive: -21.2%
79 | Cc1oc(-c2ccccc2Cl)nc1CS(=O)(=O)CC(=O)NC(C)c1ccccc1 (stereo not given) | inactive: 1.69%
80 | Cc1ccc2onc(CNC(=O)NCc3ccccc3)c2c1 | inactive: 3.68%
81 | CCC(C(=O)Nc1ccccc1OC)n1c(C(=O)OC)cc2sc(Cl)cc21 (stereo not given) | inactive: -12.9%
82 | CCOc1ccccc1CNC(=O)CSc1nnc(C)c2c(C)n(-c3ccccc3)nc12 | inactive: 0.498%
83 | CCOCCCNC(=O)c1ccc2c(=O)n(CCc3ccc(OC)c(OC)c3)c(=O)[nH]c2c1 | inactive: -4.41%
84 | CC(=O)N1CCc2cc(S(=O)(=O)NC(CC(C)C)C(=O)NCCc3cccc(C)c3)ccc21 (stereo not given) | inactive: -8.97%
85 | Cc1ccc(CN(C(=O)COc2ccc([N+](=O)[O-])cc2)c2ccccn2)o1 | inactive: 2.74%
86 | CCC1CCCCN1S(=O)(=O)c1cc2c(cc1C)NC(=O)CO2 (stereo not given) | inactive: -23.3%
87 | CC(=O)c1ccc(NC(=O)CSc2ccc3nnc(CCNS(=O)(=O)c4ccc(C)cc4)n3n2)cc1 | inactive: 17.6%
88 | Cc1ccc(Nc2ncc(C(=O)Nc3ccc(F)cc3F)c3ccccc23)cc1Cl | inactive: -0.562%
89 | CC(=O)c1cccc(NC(=O)C2CCN(S(=O)(=O)c3ccccc3)CC2)c1 | inactive: 3.47%
90 | COc1ccc(CNC(=O)c2nn(C)c3c2CS(=O)(=O)c2ccccc2-3)cc1 | inactive: 4.39%
91 | O=c1[nH]c2ccc(NCc3ccc(-c4ccc(F)cc4)o3)cc2[nH]1 | inactive: -0.221%
92 | CC1CCC(NC(=O)Cn2ncc3c4ccccc4n(Cc4ccc(F)cc4)c3c2=O)CC1 (stereo not given) | inactive: -6.48%
93 | c1ccc2c(c1)ncc1nncn12 | inactive: 2.03%
94 | CCc1nnc(SCC(=O)Nc2cccc(C(F)(F)F)c2)c2cc3oc(C)cc3n12 | inactive: -2.77%
95 | CCCc1nn2cc(-c3ccc(C)c(C)c3)nc2s1 | inactive: -0.296%

Source: PubChem BioAssay AID1508642 (National Center for Advancing Translational Sciences (NCATS), 2021)
